Test system: HEK293T/16 cells
Assay: Secreted alkaline phosphatase (SEAP)-based surrogate killing assay of iCasp9 mutants
Assay type: cell-based, human
Details: for Basal Activity (relative to wild type/unmodified Caspase-9): SEAP assay without AP1903
Procedure: Early passage HEK293T/16 cells (ATCC, Manassas, Va.) were maintained in IMDM, GlutaMAX™ (Life Technologies, Carlsbad, Calif.) supplemented with 10% FBS, 100 U/mL penicillin, and 100 […] until transfection in a humidified, 37° C., 5% CO2/95% air atmosphere. Cells in logarithmic-phase growth were transiently transfected with 800 ng to 2 μg of expression plasmid encoding iCasp9 mutants and 500 ng of an expression plasmid encoding SRα promoter driven SEAP per million cells in 15-mL conical tubes. […] GeneJammer® Transfection Reagent at a ratio of 3 μl per ug of plasmid DNA was used to transiently transfect HEK293T/16 cells in the absence of antibiotics. 100 μl or 2 mL of the transfection mixture was added to each well in 96-well or 6-well plate, respectively.
Briefly, after 65° C. heat denaturation for 45 minutes to reduce background caused by endogenous (and serum-derived) alkaline phosphatases that are sensitive to heat, 5 μl of supernatants was added to 95 μl of PBS and added to 100 μl of substrate buffer, containing 1 μl of 100 mM 4-methylumbelliferyl phosphate (4-MUP; Sigma, St. Louis, Mo.) re-suspended in 2 M diethanolamine. Hydrolysis of 4-MUP by SEAP produces a fluorescent […] with excitation/emission (355/460 nm), which can be easily measured. Assays were performed in black opaque 96-well plates to minimize fluorescence leakage between wells. […] of the mixture was seeded onto each well of a 96-well plate. […] For the assay, 4-methylumbelliferyl phosphate substrate was hydrolyzed by SEAP to 4-methylumbelliferon, a metabolite that can be excited with 364 nm and detected with an emission filter of 448 nm. Since SEAP is used as a marker for cell viability, reduced SEAP reading corresponds with increased iCaspase-9 activities.

B1: N405Q-T317S: modified iCasp9 double mutant (protein)
chain: VDGFGDVGALESLRGNADLAYILSMEPCGHCLIINNVNFCRESGLRTRTGSNIDCEKLRRRFSSLHFMVEVKGDLTAKKMVLALLELARQDHGALDCCVVVILSHGCQASHLQFPGAVYGTDGCPVSVEKIVNIFNGTSCPSLGGKPKLFFIQACGGEQKDHGFEVASTSPEDESPGSNPEPDASPFQEGLRTFDQLDAISSLPTPSDIFVSYSTFPGFVSWRDPKSGSWYVETLDDIFEQWAHSEDLQSLLLRVANAVSVKGIYKQMPGCFQFLRKKLFFKTSASRA
**Q.** B1 was tested. Which “Basal Activity (relative to wild type/unmodified Caspase-9)” value did it give?
**A.** Decreased

B2: N405Q-T317Sco: codon-optimized double mutant, class predicted (protein, UniProt P55211 1-416, looked up, variant N405Q T317S)
chain: MDEADRRLLRRCRLRLVEELQVDQLWDALLSRELFRPHMIEDIQRAGSGSRRDQARQLIIDLETRGSQALPLFISCLEDTGQDMLASFLRTNRQAAKLSKPTLENLTPVVLRPEIRKPEVLRPETPRPVDIGSGGFGDVGALESLRGNADLAYILSMEPCGHCLIINNVNFCRESGLRTRTGSNIDCEKLRRRFSSLHFMVEVKGDLTAKKMVLALLELAQQDHGALDCCVVVILSHGCQASHLQFPGAVYGTDGCPVSVEKIVNIFNGTSCPSLGGKPKLFFIQACGGEQKDHGFEVASTSPEDESPGSNPEPDASPFQEGLRTFDQLDAISSLPTPSDIFVSYSTFPGFVSWRDPKSGSWYVETLDDIFEQWAHSEDLQSLLLRVANAVSVKGIYKQMPGCFQFLRKKLFFKTS
modifications: FKBP12-F36V fusion (iCasp9), codon-optimized
notes: codon-optimized double mutant, class predicted
**Q.** With B2 as the molecule, how does the “Basal Activity (relative to wild type), predicted mutants (*)” value (marked '*, predicated') read?
**A.** Decreased

B3: T317S: modified iCasp9, T317S (protein)
chain: VDGFGDVGALESLRGNADLAYILSMEPCGHCLIINNVNFCRESGLRTRTGSNIDCEKLRRRFSSLHFMVEVKGDLTAKKMVLALLELARQDHGALDCCVVVILSHGCQASHLQFPGAVYGTDGCPVSVEKIVNIFNGTSCPSLGGKPKLFFIQACGGEQKDHGFEVASTSPEDESPGSNPEPDASPFQEGLRTFDQLDAISSLPTPSDIFVSYSTFPGFVSWRDPKSGSWYVETLDDIFEQWAHSEDLQSLLLRVANAVSVKGIYKQMPGCFNFLRKKLFFKTSASRA
**Q.** With B3 as the molecule, how does the “Basal Activity (relative to wild type/unmodified Caspase-9)” value (listed as T3175) read?
**A.** Decreased

From patent US20230065562A1, “DUAL CONTROLS FOR THERAPEUTIC CELL ACTIVATION OR ELIMINATION” (Bellicum Pharmaceuticals, Inc., priority 2015, published 2023)
